Data as given in PMC8342319, “Predicting blood-to-plasma concentration ratios of drugs from chemical structures and volumes of distribution in humans” (Molecular Diversity, 2021).
Read-outs that look alike come from different tables or passages of the source.

Tests used:
[1] = human, cited from earlier work
plasma protein [2] = test: Measurement of PPB by equilibrium dialysis in pooled human plasma (free fraction); conditions: for fp_Human: human plasma free fraction, footnote b: fu is our experimental data; for fraction unbound at 5 h, 5 µM: human, pooled human plasma
plasma protein [3] = conditions: cited from earlier work; for fp_Human (free fraction in plasma): human
[4] = human
[5] = intravenous, median if multiple values were reported, ref numbers in Table S1
[6] = collected value, median if multiple values were reported, ref: Table S1
[7] = intravenous, median if multiple values reported, Reference of Table S1

Compound	in vivo Vd_(L/kg)_Human [1, 5]	fp_Human (plasma protein [2])	fraction unbound at 5 h, 5 µM (plasma protein [2])	also measured
CC(C)NCC(O)COc1ccc(CC(N)=O)cc1 (centres unmarked) [Atenolol]	0.950 L/kg	1.000	1	–
CN(C)CCOC(c1ccccc1)c1ccccc1 [Diphenhydramine]	6.500 L/kg	–	–	fp_Human (free fraction in plasma) (plasma protein [3]; [6]): 0.190
COc1ccc2cc([C@H](C)C(=O)O)ccc2c1 [Naproxen]	0.095 L/kg	0.001	0.001	in vivo MRT_(hr)_Human [4]: 22.619 h
CC1=C(C(=O)O)N2C(=O)[C@@H](NC(=O)[C@H](N)c3ccccc3)[C@H]2SC1 [Cephalexin]	0.210 L/kg	–	–	–
CN1C(=O)CN=C(c2ccccc2)c2cc(Cl)ccc21 [Diazepam]	–	–	–	fp_Human (plasma protein [3]): 0.023; fp_Human (free fraction in plasma) (plasma protein [3]; plasma): 0.023; in vivo Vd_(L/kg)_Human ([1]; in vivo, iv): 1.000 L/kg
CCCNCC(O)COc1ccccc1C(=O)CCc1ccccc1 (centres unmarked) [Propafenone]	–	–	–	fp_Human (plasma protein [3]; free fraction in human plasma, median if multiple values reported, Reference of Table S1): 0.046; in vivo Vd_(L/kg)_Human [1, 7]: 2.200 L/kg
NS(=O)(=O)c1cc(C(=O)O)c(NCc2ccco2)cc1Cl [Furosemide]	0.120 L/kg	0.363	0.363	–
CCCCc1oc2ccccc2c1C(=O)c1cc(I)c(OCCN(CC)CC)c(I)c1 [Amiodarone]	63.000 L/kg	–	–	fp_Human (free fraction in plasma) (plasma protein [3]; [6]): 0.025
Cc1cc(NS(=O)(=O)c2ccc(N)cc2)no1 [Sulfamethoxazole]	–	–	–	fp_Human (plasma protein [3]): 0.230; in vivo Vd_(L/kg)_Human [1, 7]: 0.300 L/kg
CN1CC[C@]23c4c5ccc(O)c4O[C@H]2[C@@H](O)C=C[C@H]3[C@H]1C5 [Morphine]	–	–	–	fp_Human (plasma protein [3]): 0.650; fp_Human (free fraction in plasma) (plasma protein [3]; plasma): 0.650; in vivo Vd_(L/kg)_Human ([1]; in vivo, iv): 2.800 L/kg
CCN(CC)CC(=O)Nc1c(C)cccc1C [Lidocaine]	1.450 L/kg	0.251	0.251	in vivo MRT_(hr)_Human [4]: 1.510 h
